# Data reported in the supplement of paper PMC8728848.
# The other results are listed elsewhere or left out.
# B1: PNA (Arachis hypogaea), P02872 (protein)
# chain: MKPFCVFLTFFLLLAASSKKVDSAETVSFNFNSFSEGNPAINFQGDVTVLSNGNIQLTNLNKVNSVGRVLYAMPVRIWSSATGNVASFLTSFSFEMKDIKDYDPADGIIFFIAPEDTQIPAGSIGGGTLGVSDTKGAGHFVGVEFDTYSNSEYNDPPTDHVGIDVNSVDSVKTVPWNSVSGAVVKVTVIYDSSTKTLSVAVTNDNGDITTIAQVVDLKAKLPERVKFGFSASGSLGGRQIHLIRSWSFTSTLITTTRRSIDNNEKKIMNMASA
# Legend:
# Test in all cases: glycan array binding signal (z-score within array); higher = stronger binding
# Details in all cases: glycan notation: IUPAC condensed, linker removed
# Glc(a1-6)Glc(a1-6)Glc = biological target: Glc(a1-6)Glc(a1-6)Glc
# Method in brief: (§1)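 Arrays were curated from the Consortium for Functional Glycomics database, 3228 in total, and kept only where the protein sequence was available. Binding is expressed as a within-array Z-score. This score was averaged across arrays of the same protein sequence at different concentrations or buffers and across linkers, and negative values can be read as non-binding.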
# [1] = biological target: Glc(a1-6)Glc(a1-6)Glc(a1-6)Glc
# Method in brief: as §1
# [2] = biological target: Glc(a1-6)Glc(a1-6)Glc(a1-6)Glc(a1-6)Glc
# Method in brief: as §1
# [3] = biological target: Glc(a1-6)Glc(a1-6)Glc(a1-6)Glc(a1-6)Glc(a1-6)Glc
# Method in brief: as §1
# [4] = biological target: Glc(a1-6)Glc(a1-6)Glc(a1-6)Glc(a1-6)Glc(a1-6)Glc(a1-6)Glc
# Method in brief: as §1
# [5] = biological target: Glc(a1-6)Glc(a1-6)Glc(a1-6)Glc(a1-6)Glc(a1-6)Glc(a1-6)Glc(a1-6)Glc
# Method in brief: as §1
# [6] = biological target: Glc(a1-6)Glc(a1-6)Glc(a1-6)Glc(a1-6)Glc(a1-6)Glc(a1-6)Glc(a1-6)Glc(a1-6)Glc
# Method in brief: as §1
# [7] = biological target: Glc(a1-6)Glc(a1-6)Glc(a1-6)Glc(a1-6)Glc(a1-6)Glc(a1-6)Glc(a1-6)Glc(a1-6)Glc(a1-6)Glc
# Method in brief: as §1
# [8] = biological target: Glc(a1-6)Glc(a1-6)Glc(a1-6)Glc(a1-6)Glc(a1-6)Glc(a1-6)Glc(a1-6)Glc(a1-6)Glc(a1-6)Glc(a1-6)Glc
# Method in brief: as §1
# [9] = biological target: Glc(a1-6)Glc(a1-6)Glc(a1-6)Glc(a1-6)Glc(a1-6)Glc(a1-6)Glc(a1-6)Glc(a1-6)Glc(a1-6)Glc(a1-6)Glc(a1-6)Glc
# Method in brief: as §1
# [10] = biological target: Glc(a1-6)Glc(a1-6)Glc(a1-6)Glc(a1-6)Glc(a1-6)Glc(a1-6)Glc(a1-6)Glc(a1-6)Glc(a1-6)Glc(a1-6)Glc(a1-6)Glc(a1-6)Glc
# Method in brief: as §1
# Glc(b1-2)Glc = biological target: Glc(b1-2)Glc
# Method in brief: as §1
# Glc(b1-3)Glc = biological target: Glc(b1-3)Glc
# Method in brief: as §1
# Glc(b1-3)Glc(b1-3)Glc = biological target: Glc(b1-3)Glc(b1-3)Glc
# Method in brief: as §1
# [11] = biological target: Glc(b1-3)Glc(b1-3)Glc(b1-3)Glc
# Method in brief: as §1
# [12] = biological target: Glc(b1-3)Glc(b1-3)Glc(b1-3)Glc(b1-3)Glc
# Method in brief: as §1
# [13] = biological target: Glc(b1-3)Glc(b1-3)Glc(b1-3)Glc(b1-3)Glc(b1-3)Glc
# Method in brief: as §1
# [14] = biological target: Glc(b1-3)Glc(b1-3)Glc(b1-3)Glc(b1-3)Glc(b1-3)Glc(b1-3)Glc
# Method in brief: as §1
# [15] = biological target: Glc(b1-3)Glc(b1-3)Glc(b1-3)Glc(b1-3)Glc(b1-3)Glc(b1-3)Glc(b1-3)Glc
# Method in brief: as §1
# [16] = biological target: Glc(b1-3)Glc(b1-3)Glc(b1-3)Glc(b1-3)Glc(b1-3)Glc(b1-3)Glc(b1-3)Glc(b1-3)Glc
# Method in brief: as §1
# [17] = biological target: Glc(b1-3)Glc(b1-3)Glc(b1-3)Glc(b1-3)Glc(b1-3)Glc(b1-3)Glc(b1-3)Glc(b1-3)Glc(b1-3)Glc
# Method in brief: as §1
# [18] = biological target: Glc(b1-3)Glc(b1-3)Glc(b1-3)Glc(b1-3)Glc(b1-3)Glc(b1-3)Glc(b1-3)Glc(b1-3)Glc(b1-3)Glc(b1-3)Glc
# Method in brief: as §1
# [19] = biological target: Glc(b1-3)Glc(b1-3)Glc(b1-3)Glc(b1-3)Glc(b1-3)Glc(b1-3)Glc(b1-3)Glc(b1-3)Glc(b1-3)Glc(b1-3)Glc(b1-3)Glc
# Method in brief: as §1
# [20] = biological target: Glc(b1-3)Glc(b1-3)Glc(b1-3)Glc(b1-3)Glc(b1-3)Glc(b1-3)Glc(b1-3)Glc(b1-3)Glc(b1-3)Glc(b1-3)Glc(b1-3)Glc(b1-3)Glc
# Method in brief: as §1
# Glc(b1-4)Glc = biological target: Glc(b1-4)Glc
# Method in brief: as §1
# Glc(b1-4)Glc(b1-4)Glc = biological target: Glc(b1-4)Glc(b1-4)Glc
# Method in brief: as §1
# [21] = biological target: Glc(b1-4)Glc(b1-4)Glc(b1-4)Glc
# Method in brief: as §1
# [22] = biological target: Glc(b1-4)Glc(b1-4)Glc(b1-4)Glc(b1-4)Glc
# Method in brief: as §1
# [23] = biological target: Glc(b1-4)Glc(b1-4)Glc(b1-4)Glc(b1-4)Glc(b1-4)Glc
# Method in brief: as §1
# [24] = biological target: Glc(b1-4)Glc(b1-4)Glc(b1-4)Glc(b1-4)Glc(b1-4)Glc(b1-4)Glc(b1-4)Glc
# Method in brief: as §1
# [25] = biological target: Glc(b1-4)Glc(b1-4)Glc(b1-4)Glc(b1-4)Glc(b1-4)Glc(b1-4)Glc(b1-4)Glc(b1-4)Glc
# Method in brief: as §1
# [26] = biological target: Glc(b1-4)Glc(b1-4)Glc(b1-4)Glc(b1-4)Glc(b1-4)Glc(b1-4)Glc(b1-4)Glc(b1-4)Glc(b1-4)Glc
# Method in brief: as §1
# [27] = biological target: Glc(b1-4)Glc(b1-4)Glc(b1-4)Glc(b1-4)Glc(b1-4)Glc(b1-4)Glc(b1-4)Glc(b1-4)Glc(b1-4)Glc(b1-4)Glc
# Method in brief: as §1
# [28] = biological target: Glc(b1-4)Glc(b1-4)Glc(b1-4)Glc(b1-4)Glc(b1-4)Glc(b1-4)Glc(b1-4)Glc(b1-4)Glc(b1-4)Glc(b1-4)Glc(b1-4)Glc
# Method in brief: as §1
# [29] = biological target: Glc(b1-4)Glc(b1-4)Glc(b1-4)Glc(b1-4)Glc(b1-4)Glc(b1-4)Glc(b1-4)Glc(b1-4)Glc(b1-4)Glc(b1-4)Glc(b1-4)Glc(b1-4)Glc
# Method in brief: as §1
# Glc(b1-6)Glc = biological target: Glc(b1-6)Glc
# Method in brief: as §1
# Glc(b1-6)Glc(b1-6)Glc = biological target: Glc(b1-6)Glc(b1-6)Glc
# Method in brief: as §1
# [30] = biological target: Glc(b1-6)Glc(b1-6)Glc(b1-6)Glc
# Method in brief: as §1
binder,measurement,setting,value
B1,glycan array binding signal (z-score),Glc(a1-6)Glc(a1-6)Glc,-0.177
same,glycan array binding signal (z-score),[1],-0.136
same,glycan array binding signal (z-score),[2],-0.195
same,glycan array binding signal (z-score),[3],-0.195
same,glycan array binding signal (z-score),[4],-0.195
same,glycan array binding signal (z-score),[5],-0.195
same,glycan array binding signal (z-score),[6],-0.195
same,glycan array binding signal (z-score),[7],-0.195
same,glycan array binding signal (z-score),[8],-0.195
same,glycan array binding signal (z-score),[9],-0.195
same,glycan array binding signal (z-score),[10],-0.195
same,glycan array binding signal (z-score),Glc(b1-2)Glc,-0.195
same,glycan array binding signal (z-score),Glc(b1-3)Glc,-0.195
same,glycan array binding signal (z-score),Glc(b1-3)Glc(b1-3)Glc,-0.195
same,glycan array binding signal (z-score),[11],-0.195
same,glycan array binding signal (z-score),[12],-0.195
same,glycan array binding signal (z-score),[13],-0.195
same,glycan array binding signal (z-score),[14],-0.195
same,glycan array binding signal (z-score),[15],-0.195
same,glycan array binding signal (z-score),[16],-0.195
same,glycan array binding signal (z-score),[17],-0.195
same,glycan array binding signal (z-score),[18],-0.195
same,glycan array binding signal (z-score),[19],-0.195
same,glycan array binding signal (z-score),[20],-0.195
same,glycan array binding signal (z-score),Glc(b1-4)Glc,-0.166
same,glycan array binding signal (z-score),Glc(b1-4)Glc(b1-4)Glc,0.142
same,glycan array binding signal (z-score),[21],0.389
same,glycan array binding signal (z-score),[22],0.275
same,glycan array binding signal (z-score),[23],-0.087
same,glycan array binding signal (z-score),[24],0.304
same,glycan array binding signal (z-score),[25],0.924
same,glycan array binding signal (z-score),[26],1.4
same,glycan array binding signal (z-score),[27],2.88
same,glycan array binding signal (z-score),[28],1.98
same,glycan array binding signal (z-score),[29],2.23
same,glycan array binding signal (z-score),Glc(b1-6)Glc,-0.173
same,glycan array binding signal (z-score),Glc(b1-6)Glc(b1-6)Glc,-0.195
same,glycan array binding signal (z-score),[30],-0.195
